Toxic doses and inconclusive results are not listed. Some entries of the source have several records that differ or are many. The other results are left out here. An entry can have further records. Values given together repeat one measurement in other runs, samples, wells, individuals or studies. Marks in square brackets tell the records apart. Letters count within one entry. Brackets with × stand for listed records that agree.
Tested on: BDF1 mice, P388 leukemia ip, median survival T/C
Test: NCI In Vivo Anticancer Drug Screen. Data for tumor model P388 Leukemia (intraperitoneal) in B6D2F1 (BDF1) mice
Conditions: endpoint: median survival time, higher = longer survival
Protocol: The antitumor activity of compounds was measured in mice bearing transplantable tumors. Survival or tumor size were measured and the results are expressed as the measurement made in the treated group (T) divided by the measurement made in the vehicle treated control group (C). The tumor model used in this assay is P388 Leukemia (intraperitoneal) in B6D2F1 (BDF1) mice

[1] = dose: 33.0 mg/kg/injection, schedule: Q01DX009 (ip), vehicle: saline
[2] = dose: 25.0 mg/kg/injection, schedule: Q01DX009 (ip), vehicle: saline

Q: `Nc1ccc2nc3ccc(N)cc3[n+](-c3ccccc3)c2c1` was tested. Which T/C (dose: 12.0 mg/kg/injection, schedule: Q01DX009 (ip), vehicle: saline) did it give?
A: 109 % of control and 183 % of control

Q: For `COC1=C(N)C(=O)c2nc(-c3nc(C(=O)O)c(C)c(-c4ccc(OC)c(OC)c4O)c3N)ccc2C1=O`, which T/C (dose: 0.05 mg/kg/injection, schedule: Q01DX010 (ip), vehicle: saline) is on record?
A: 118 % of control [sample A] and 155 % of control [sample B]

Q: `O=C1N(Cl)C(=O)C(c2ccc(Cl)cc2)(c2ccc(Cl)cc2)N1Cl` was tested. Which T/C (dose: 300.0 mg/kg/injection, schedule: Q04DX003 (ip), vehicle: saline with Tween-80) did it give?
A: 104 % of control, 160 % of control, 163 % of control

Q: Which T/C (dose: 40.0 mg/kg/injection, schedule: Q01DX009 (ip), vehicle: saline) does the source give for `COc1cc(Cc2nccc3cc(OC)c(OC)cc23)c(C(C)=O)c(OC)c1` here?
A: 110 % of control and 166 % of control

Q: And the T/C (dose: 80.0 mg/kg/injection, schedule: Q01DX009 (ip), vehicle: saline)?
A: 100 % of control and 190 % of control

Q: For `OCCOCCN1CCN(CCCN2c3ccccc3Sc3ccc(C(F)(F)F)cc32)CC1`, which T/C (dose: 25.0 mg/kg/injection, schedule: Q04DX003 (ip), vehicle: saline) is on record?
A: 123 % of control and 150 % of control

Q: For `OCC1OC(OC2(CO)OC(CO)C(O)C2O)C(O)C(O)C1O` (stereo not drawn), which T/C [1] is on record?
A: 122 % of control and 155 % of control

Q: Which T/C (dose: 66.0 mg/kg/injection, schedule: Q04DX003 (ip), vehicle: Klucel (hydroxypropylcellulose) (HPC)) does the source give for `CCCn1cnc2c(=S)nc(N)[nH]c21` here?
A: 105 % of control and 159 % of control

Q: And the T/C (dose: 100.0 mg/kg/injection, schedule: Q04DX003 (ip), vehicle: Klucel (hydroxypropylcellulose) (HPC))?
A: 90 % of control and 168 % of control

Q: With `CC1CN1P(=O)(Oc1ccccc1)N1CC1C` (stereo not drawn) as the compound, how does the T/C (dose: 100.0 mg/kg/injection, schedule: Q01DX009 (ip), vehicle: saline) read?
A: 112 % of control and 195 % of control

Q: With `c1nc(SC2=NCCN2)c2[nH]cnc2n1` as the compound, how does the T/C [1] read?
A: 119 % of control and 150 % of control

Q: `[Cl][Pt+2][Cl].[NH-]C1CCC1.[NH-]C1CCC1` was tested. Which T/C (dose: 6.25 mg/kg/injection, schedule: Q01DX009 (ip), vehicle: Klucel (hydroxypropylcellulose) (HPC)) did it give?
A: 115 % of control and 173 % of control

Q: Which T/C [2] does the source give for `CN(CCCl)Cc1ccccc1` here?
A: 100 % of control and 155 % of control

Q: And the T/C (dose: 50.0 mg/kg/injection, schedule: Q04DX003 (ip), vehicle: saline)?
A: 119 % of control and 190 % of control

Q: And the T/C (dose: 66.0 mg/kg/injection, schedule: Q04DX003 (ip), vehicle: saline)?
A: 120 % of control and 159 % of control

Q: What does the source list for `NC(=O)c1ccc[n+](Cc2c(Cl)cccc2Cl)c1`?
A: T/C (dose: 9.3 mg/kg/injection, schedule: Q01DX009 (ip), vehicle: saline): 122 % of control and 158 % of control; T/C (dose: 20.0 mg/kg/injection, schedule: Q04DX003 (ip), vehicle: saline): 100 % of control and 150 % of control

Q: `Nc1nc(N)c(-c2ccc(Cl)c(Cl)c2)c(COc2cccc(CNC(=O)c3cccc(S(=O)(=O)F)c3)c2)n1` was tested. Which T/C (dose: 300.0 mg/kg/injection, schedule: Q04DX003 (ip), vehicle: Klucel (hydroxypropylcellulose) (HPC)) did it give?
A: 119 % of control and 150 % of control

Q: With `NCCc1ccc(O)c(O)c1` as the compound, how does the T/C (dose: 600.0 mg/kg/injection, schedule: Q01DX009 (ip), vehicle: saline) read?
A: 90 % of control and 168 % of control

Q: With `Cc1c2ccccc2cc2cccc[n+]12` as the compound, how does the T/C (dose: 20.0 mg/kg/injection, schedule: Q01DX010 (ip), vehicle: saline) read?
A: 100 % of control and 170 % of control

Q: For `CC[n+]1c(-c2ccccc2)c2cc(N)ccc2c2ccc(N)cc21`, which T/C (dose: 10.0 mg/kg/injection, schedule: Q01DX010 (ip), vehicle: saline) is on record?
A: 123 % of control and 150 % of control

Q: `COC(C(=O)C(O)C(C)O)C1Cc2cc3cc(OC4CC(OC(C)=O)C(OC5CC(O)C(OC)C(C)O5)C(C)O4)cc(O)c3c(O)c2C(=O)C1OC1CC(OC2CC(OC3CC(C)(O)C(OC(=O)C(C)C)C(C)O3)C(O)C(C)O2)C(O)C(C)O1` (stereo not drawn) was tested. Which T/C (dose: 2.0 mg/kg/injection, schedule: Q01DX009 (ip), vehicle: other) did it give?
A: 195 % of control [sample A] and 87 % of control [sample B]

Q: Which T/C (dose: 400.0 mg/kg/injection, schedule: Q04DX003 (ip), vehicle: Klucel (hydroxypropylcellulose) (HPC)) does the source give for `O=C1CC(c2ccc(O)cc2)CC(=O)C1C(C1CC=CCC1)N(CCCl)CCCl` (stereo not drawn) here?
A: 150 % of control (2×), 158 % of control [sample A] and 112 % of control [sample B]

Q: Which T/C (dose: 2.5 mg/kg/injection, schedule: Q01DX009 (ip), vehicle: saline) does the source give for `CC(=O)C1COC(O)C1C` (stereo not drawn) here?
A: 153 % of control [sample A] and 107 % of control [sample B]

Q: With `O=C1C(NCC(O)CO)=C(N2CC2)C(=O)C(NCC(O)CO)=C1N1CC1` (stereo not drawn) as the compound, how does the T/C (dose: 1.0 mg/kg/injection, schedule: Q01DX009 (ip), vehicle: saline) read?
A: 115 % of control and 181 % of control

Q: With `CC1(C)S[C@@H]2[C@H](NC(=O)CCC[C@@H](N)C(=O)O)C(=O)N2[C@H]1C(=O)O` as the compound, how does the T/C (dose: 375.0 mg/kg/injection, schedule: Q01DX009 (ip), vehicle: saline) read?
A: 106 % of control, 117 % of control, 156 % of control

Q: `C=CCCCC[P+](c1ccccc1)(c1ccccc1)c1ccccc1` was tested. Which T/C (dose: 3.0 mg/kg/injection, schedule: Q01DX010 (ip), vehicle: saline) did it give?
A: 120 % of control and 150 % of control

Q: How did the T/C (dose: 100.0 mg/kg/injection, schedule: Q01DX010 (ip), vehicle: saline) turn out when `CN(C)/N=N/c1nc[nH]c1C(N)=O` was run?
A: 100 % of control and 154 % of control

Q: How did the T/C (dose: 6.25 mg/kg/injection, schedule: Q01DX009 (ip), vehicle: saline) turn out when `Cc1ccc(Oc2ccc3cc[n+](C)cc3c2)cc1` was run?
A: 89 % of control and 180 % of control

Q: `N/C(=N\Cl)C(Cl)(Cl)Cl` was tested. Which T/C (dose: 16.5 mg/kg/injection, schedule: Q01DX009 (ip), vehicle: saline) did it give?
A: 113 % of control and 150 % of control

Q: Which T/C (dose: 10.0 mg/kg/injection, schedule: Q04DX003 (ip), vehicle: Klucel (hydroxypropylcellulose) (HPC)) does the source give for `O=NN(CCBr)C(=O)Nc1ccccc1` here?
A: 119 % of control and 154 % of control

Q: For `CCSc1ccc2c(cc1=O)[C@@H](NC1OC(CO)C(O)C(O)C1O)CCc1cc(OC)c(OC)c(OC)c1-2` (stereo partly drawn), which T/C (dose: 400.0 mg/kg/injection, schedule: Q01DX009 (ip), vehicle: other) is on record?
A: 106 % of control and 155 % of control

Q: For `Cn1cnc([N+](=O)[O-])c1Sc1nc(N)nc2c1ncn2C1OC(CO)C(O)C1O` (stereo not drawn), which T/C (dose: 37.0 mg/kg/injection, schedule: Q04DX003 (ip), vehicle: saline) is on record?
A: 90 % of control and 183 % of control

Q: For `Nc1ncnc2c1c(C(=O)O)cn2C1OC(CO)C(O)C1O` (stereo not drawn), which T/C (dose: 150.0 mg/kg/injection, schedule: Q04DX003 (ip), vehicle: saline with Tween-80) is on record?
A: 95 % of control and 185 % of control

Q: How did the T/C [2] turn out when `COc1cc(/C=C(/C)[N+](=O)[O-])ccc1O` was run?
A: 118 % of control and 155 % of control

Q: How did the T/C (dose: 150.0 mg/kg/injection, schedule: Q01DX009 (ip), vehicle: saline with Tween-80) turn out when `Nc1ncnc2c1nnn2C1CC(CO)C(O)C1O` (stereo not drawn) was run?
A: 118 % of control and 173 % of control

Q: For `CC(Cl)CN(CC(C)Cl)c1ccc(S(=O)(=O)Nc2ncccn2)cc1` (stereo not drawn), which T/C (dose: 200.0 mg/kg/injection, schedule: Q01DX009 (ip), vehicle: gum acacia) is on record?
A: 88 % of control and 272 % of control

Q: `COC(=O)C[C@](O)(CCCC(C)(C)O)C(=O)O[C@@H]1C(OC)=C[C@]23CCCN2CCc2cc4c(cc2[C@H]13)OCO4` was tested. Which T/C (dose: 2.0 mg/kg/injection, schedule: Q01DX009 (ip), vehicle: saline) did it give?
A: 95 % of control and 300 % of control

Source: PubChem BioAssay AID328 (DTP/NCI, 2004)
